Screen size: about 230,000 compounds; about 3,600 (1.6%) were called active. Inconclusive results, whose numbers are uncertain, are shown with a selection of clear calls. Calls follow the shape of the dose curve; as a rule, active = well fitted inhibition curve with a large enough effect (not every such curve was filed as active); inconclusive = small, poorly fitted or top-dose-only effect, or another doubt; inactive = no such curve, though single readings can be large or run the other way. A potency beside an inconclusive call is a rough fit, not a confirmed value. Where a SMILES comes first, the peptide text is derived from it. The star is where a group is joined. Bz = O=C(c1ccccc1)*
These molecules were tested against Lysine-specific demethylase 4E (Homo sapiens) (UniProt B2RXH2) (assay: qHTS Assay for Inhibitors of Human Jumonji Domain Containing 2E (JMJD2E)). Conditions: JMJD2E catalytic domain, FDH-coupled NADH fluorescence (FDH is formaldehyde dehydrogenase); series mostly up to 57.1 µM; activity change, negative = inhibition: at the top concentration.
Also: nearly all actives have a fitted effect of over 50% in size.
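For activity change, negative = inhibition in this document: 0% = wells with enzyme and -100% = buffer wells without enzyme.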
Potency is read from the fitted curve at half-maximal effect; tags tell the direction and shape of the fitted curve.

UniProt B2RXH2, sequence (B2RXH2 whole entry, looked up, the tested form may be a part): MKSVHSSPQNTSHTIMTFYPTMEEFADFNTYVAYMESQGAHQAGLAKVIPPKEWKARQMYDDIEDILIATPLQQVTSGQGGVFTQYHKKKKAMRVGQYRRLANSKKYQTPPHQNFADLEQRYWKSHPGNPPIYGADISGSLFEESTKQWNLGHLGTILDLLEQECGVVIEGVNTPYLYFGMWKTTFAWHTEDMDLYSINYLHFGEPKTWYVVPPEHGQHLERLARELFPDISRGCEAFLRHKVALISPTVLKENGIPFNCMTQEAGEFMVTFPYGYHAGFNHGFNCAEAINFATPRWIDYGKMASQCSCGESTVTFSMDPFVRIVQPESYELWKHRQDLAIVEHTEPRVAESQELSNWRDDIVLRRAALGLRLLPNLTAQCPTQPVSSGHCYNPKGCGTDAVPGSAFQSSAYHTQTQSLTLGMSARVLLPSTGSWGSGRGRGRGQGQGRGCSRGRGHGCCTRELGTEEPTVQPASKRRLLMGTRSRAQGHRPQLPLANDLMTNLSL

Compound	Potency	activity change, negative = inhibition
Cc1cc(C)nc(Nc2nc(C)c3cc4c(cc3n2)OCO4)n1	inconclusive: 31.6 µM [inhibitor, partial curve]	
Cc1nc2ccc(NC(=O)N3CCSCC3)cc2nc1C	inconclusive: 28.2 µM [inhibitor, partial curve]	
CC(C)(C)c1ccc(-c2nc(C#N)c(NCCCn3ccnc3)o2)cc1	inconclusive: 31.6 µM [inhibitor, partial curve]	
CCC(CNc1cc(OC)cc2cccnc12)NC1CCCCC1 (stereo unspecified)		inactive: 15.5%
COc1ccc(-c2cn(-c3ccc(C)cc3)c(=O)n2CC(=O)Nc2ccc(OC)cc2OC)cc1	inconclusive: 39.8 µM [inhibitor, single point]	
CC(=O)Nc1ccc2nc(-c3ccc(Br)o3)[nH]c2c1		inactive: -118%
Cc1cc2nc3n(c2cc1C)CC1CC(C(=O)NCC2CC2)N(C)C31 (stereo unspecified)		inactive: -1.96%
COc1ccc(CCNC(=O)c2ccc(Cl)c(S(=O)(=O)N(C)c3ccccc3)c2)cc1		inactive: 1.22%
O=C(NC(Cc1ccccc1)C(=O)NC(Cc1ccccc1)C(=O)O)c1ccccc1 (stereo not drawn) (Bz-Phe-Phe-OH; configuration not given here)	inconclusive: 35.5 µM [inhibitor, single point]	
O=c1cc(CN2CCN(c3ccccc3O)CC2)nc2sccn12	inconclusive: 25.1 µM [inhibitor, single point]	
c1cc2c3c(cccc3c1)C(N1CCOCC1)=N2	inconclusive: 35.5 µM [inhibitor, single point]	
CCOC(=O)/C(C#N)=C/c1ccc(SC)cc1	inconclusive: 31.6 µM [inhibitor, single point]	
COC(=O)c1ccc(COC(=O)C(CCS(C)(=O)=O)N2C(=O)c3ccccc3C2=O)cc1 (stereo unspecified)		inactive: 9.02%
CCOP(=O)(Nc1ccc2oc(=O)c3ccccc3c2c1)OCC	inconclusive: 22.4 µM [inhibitor, partial curve]	
O=[N+]([O-])c1cc(S(=O)(=O)Nc2ccccc2)ccc1N1CCN(c2ccccc2)CC1		inactive: 2.17%
COc1cc(/C=C(\C#N)C(=O)Nc2cccc3ncccc23)ccc1O	inconclusive: 28.2 µM [inhibitor, partial curve]	
C(=C\c1ccncc1)/c1ccncc1		inactive: -1.66%
CCOC(=O)c1cc2c(s1)-c1c(C)cccc1OC2	inconclusive: 31.6 µM [inhibitor, partial curve]	
OCCCNC(=S)Nc1ccc2nccnc2c1	inconclusive: 28.2 µM [inhibitor, single point]	
N#CC1=C(N)Oc2c(oc(CO)cc2=O)C1c1cccs1 (stereo unspecified)	inconclusive: 39.8 µM [inhibitor, single point]	
CCn1c(SCC(=O)c2ccc(O)c(O)c2)nnc1-c1ccccc1OC	active: 22.4 µM	
COc1ccc2[nH]c(=O)c(C(c3nnnn3CC3CCCO3)N3CCc4ccccc4C3)cc2c1 (stereo unspecified)	inconclusive: 31.6 µM [inhibitor, partial curve]	
C=CCOc1ccc(CNc2ccc3[nH]c(=O)[nH]c3c2)cc1	inconclusive: 28.2 µM [inhibitor, partial curve]	
CN1/C(=C\C(=O)COC(=O)CNC(=O)c2ccccc2F)C(C)(C)c2ccccc21	inconclusive: 28.2 µM [inhibitor, single point]	

Compound	Potency	activity change, negative = inhibition
NC(=O)Nc1ccc(C(=O)OCC(=O)Nc2cccc(S(=O)(=O)NC3=NCCCCC3)c2)cc1		inactive: 0.677%
Cc1cc(NC(=O)CSc2nc3cc(C(=O)NCCCOC(C)C)ccc3c(=O)n2Cc2ccco2)no1	inconclusive: 39.8 µM [inhibitor, single point]	
O=C(CSc1nc2ccccc2c(=O)n1Cc1ccco1)N1CCN(c2ccccc2)CC1	inconclusive: 39.8 µM [inhibitor, single point]	
CN=c1scc(-c2ccc([N+](=O)[O-])cc2)n1/N=C/c1ccco1		inactive: 14.3%
Cc1ccc(Nc2nc(NCc3ccco3)c3ccccc3n2)cc1	inconclusive: 28.2 µM [inhibitor, partial curve]	
Cc1ccc(/C=C/C(=O)N(Cc2cccs2)C2CCS(=O)(=O)C2)cc1 (stereo unspecified)		inactive: -1.95%
O=C(NNc1ccccc1)/C(=C\c1cccnc1)NC(=O)c1ccccc1		inactive: 3.3%
Cc1cc(NC(=O)/C=C\C(=O)O)c([N+](=O)[O-])cc1C		inactive: -2.18%
COc1ccc(-n2ncc3c(NCC4CCCO4)ncnc32)cc1 (stereo unspecified)	inconclusive: 25.1 µM [inhibitor, partial curve]	
N#Cc1nc(-c2ccc(OCc3ccccc3)cc2)oc1NCc1ccco1	inconclusive: 25.1 µM [inhibitor, partial curve]	
COc1ccc(-c2nc(C#N)c(NCC3CCCO3)o2)cc1OC (stereo unspecified)	inconclusive: 31.6 µM [inhibitor, partial curve]	
Cn1c(=O)c2c(nc(CN3CCOCC3)n2CCN2CCOCC2)n(C)c1=O		inactive: -0.712%
CC(C)=NNc1nc2sc3c(c2c(=O)[nH]1)CC(C)(C)OC3	inconclusive: 31.6 µM [inhibitor, partial curve]	
O=C(CN1C(=O)COc2ccccc21)NCCCN1CCc2ccccc2C1		inactive: -3.85%
NC(=O)c1nn(-c2ccccc2)nc1N	inconclusive: 0.631 µM [inhibitor, full curve]	
Cn1c2ccccc2c2c(C(=O)N3CCN(C(=O)c4ccco4)CC3)cn(C3CCCCC3)c(=O)c21	inconclusive: 31.6 µM [inhibitor, partial curve]	
CCCn1c(=O)c(C(=O)NCc2cccnc2)c(O)c2ccccc21	inconclusive: 25.1 µM [inhibitor, single point]	
CCCN(Cc1ccccc1)C(=S)Nc1cccc(C(F)(F)F)c1		inactive: -2.23%
CCOCCCNC(=O)CN1CCN(c2ccc(F)cc2)CC1	inconclusive: 25.1 µM [inhibitor, single point]	
O=S(=O)(NCc1csc(-c2cccs2)n1)c1ccccc1	inconclusive: 39.8 µM [inhibitor, single point]	
CCCCn1nc2cc(C(=O)NCc3ccccc3)ccc2c1OCC	inconclusive: 28.2 µM [inhibitor, partial curve]	
CCN(CC)CCC(c1cc(OC)c(OC)c(OC)c1)c1c(OC)cc(OC)c2c(C)cc(=O)oc12 (stereo unspecified)	inconclusive: 39.8 µM [inhibitor, single point]	
Cc1ccc(C2OC34CCCCCC3C(C#N)(C(=N)O4)C2(C#N)C#N)cc1 (stereo unspecified)	inconclusive: 31.6 µM [inhibitor, partial curve]	
CN1CCc2cc(O)c(O)cc2C(c2ccccc2)C1 (stereo unspecified)	active: 20 µM	

Compound	Potency	activity change, negative = inhibition
CCCc1nc2ccccc2c(NC(=O)CN(CC)CC)c1CC	inconclusive: 7.08 µM [inhibitor, single point]	
CCCCN1/C(=C/c2ccc3ccccc3[n+]2CC)Sc2ccccc21	active: 14.1 µM	
C#CCn1cnc2c(cnn2-c2ccc(C)c(C)c2)c1=O	inconclusive: 15.8 µM [inhibitor, single point]	
CS(=O)(=O)N1CCN(c2ccccc2NC(=O)c2ccc(Br)o2)CC1		inactive: 4.84%
Cc1sc2nc(SCc3nc4ccccc4[nH]3)n(Cc3ccco3)c(=O)c2c1C	inconclusive: 25.1 µM [inhibitor, partial curve]	
CCOC(=O)c1cc(-c2ccc(OC)cc2)nc2c1c(C)nn2CCC(N)=S	inconclusive: 25.1 µM [inhibitor, partial curve]	
CCOC(=O)Cc1cc(-c2ccc(O)cc2)nc2ccc3ccccc3c12	inconclusive: 25.1 µM [inhibitor, single point]	
COc1ccc(C)c2sc(=NC(=O)c3cccc(N4C(=O)CCC4=O)c3)n(C)c12	inconclusive: 31.6 µM [inhibitor, partial curve]	
O=C(Nc1cccc(-c2nc3cccnc3s2)c1)c1cccnc1Cl		inactive: -25.6%
CCCC1(C(=O)OC)C=C2C(=C(C(C)C)C(=O)C2C)CN1 (stereo unspecified)	inconclusive: 39.8 µM [inhibitor, single point]	
Cc1cc(N2CC(C)OC(C)C2)nc2ccccc12 (stereo unspecified)	inconclusive: 25.1 µM [inhibitor, partial curve]	
CC(=O)N(C1=C(N2CCOCC2)C(=O)c2ccccc2C1=O)c1ccc(C(=O)O)cc1	active: 10 µM	
NC1=C([N+](=O)[O-])C(c2ccccc2)C2=C(CCCC2=O)O1 (stereo unspecified)	inconclusive: 22.4 µM [inhibitor, single point]	
CCCCC(CCC(=O)O)(C(=O)OCC)c1csc(Nc2ccc(C)cc2)n1 (stereo unspecified)	inconclusive: 25.1 µM [inhibitor, single point]	
O=[N+]([O-])c1ccc(N=NN(CCO)CCO)cc1		inactive: 7.48%
Cc1nn(C)c(Oc2ccccc2)c1CCNC(=O)CC(C)C	inconclusive: 35.5 µM [inhibitor, single point]	
O=C(CSc1ccc2ccccc2c1)N1CCN(c2ccc(O)cc2)CC1	inconclusive: 17.8 µM [inhibitor, partial curve]	
COc1ccc(C(=O)c2ccc(Cl)cc2)cc1		inactive: -5.1%
O=S(=O)(NNc1ccc(Cl)nn1)c1ccc(F)cc1		inactive: -2.41%
COc1ccccc1CNc1ncncc1-c1ccccc1C	inconclusive: 31.6 µM [inhibitor, single point]	
O=C(O)CSc1nnc(COc2cccc3ccccc23)n1Cc1ccccc1	inconclusive: 0.158 µM [inhibitor, full curve, poor fit]	
O=C1c2ccccc2NC(c2cccc(O)c2)N1NS(=O)(=O)c1ccccc1 (stereo unspecified)	inconclusive: 31.6 µM [inhibitor, partial curve]	
CCOC(=O)C1CCN(C(C)=C2C(=O)c3ccccc3C2=O)CC1		inactive: 0.854%

From PubChem BioAssay AID2147 (National Center for Advancing Translational Sciences (NCATS), 2009)
